Results taken from a collection of fitness landscapes (doi:10.1126/science.1257360).
Some of the results follow.

B1: PhoQ; a variant is named by its letters at X, in order, P23837 (parent)
chain: MKKLLRLFFPLSLRVRFLLATAAVVLVLSLAYGMVALIGYSVSFDKTTFRLLRGESNLFYTLAKWENNKLHVELPENIDKQSPTMTLIYDENGQLLWAQRDVPWLMKMIQPDWLKSNGFHEIEADVNDTSLLLSGDHSIQQQLQEVREDDDDAEMTHSVAVNVYPATSRMPKLTIVVVDTIPVELKSSYMVWSWFIYVLSANLLLVIPLLWVAAWWSLRPIEALAKEVRELEEHNRELLNPATTRELTSLVRNLNRLLKSERERYDKYRTTLTDLTHSLKTPLXXLQXXLRSLRSEKMSVSDAEPVMLEQISRISQQIGYYLHRASMRGGTLLSRELHPVAPLLDNLTSALNKVYQRKGVNISLDISPEISFVGEQNDFVEVMGNVLDNACKYCLEFVEISARQTDEHLYIVVEDDGPGIPLSKREVIFDRGQRVDTLRPGQGVGLAVAREITEQYEGKIVAGESMLGGARMEVIFGRQHSAPKDE

Variants of: B1
Assay: enrichment ratio after two sorts for PhoP signalling (ratio (wild type AVST 3.29)); higher = more functional
Details: with PhoP (E. coli)

Row | Variant | enrichment ratio
1 | HMQF | ≤ 0.25
2 | DHPL | ≤ 0.25
3 | TFEI | ≤ 0.25
4 | YIRL | ≤ 0.25
5 | KQLG | ≤ 0.25
6 | PYYM | ≤ 0.25
7 | MNPI | ≤ 0.25
8 | ICAL | 0.516
9 | HCTF | ≤ 0.25
10 | DCIE | ≤ 0.25
11 | NMWM | ≤ 0.25
12 | RSFG | ≤ 0.25
13 | GGVH | ≤ 0.25
14 | HYFT | ≤ 0.25
15 | QSVE | ≤ 0.25
16 | HLCF | ≤ 0.25
17 | DTFV | ≤ 0.25
18 | FSVY | ≤ 0.25
19 | RAFF | ≤ 0.25
20 | KIIA | ≤ 0.25
21 | AGER | ≤ 0.25
22 | AYLQ | 0.526
23 | GDYS | ≤ 0.25
24 | HRFI | ≤ 0.25
25 | RQPD | ≤ 0.25

Row | Variant | enrichment ratio
26 | YHKY | ≤ 0.25
27 | QDDL | ≤ 0.25
28 | YHFW | ≤ 0.25
29 | DFHT | ≤ 0.25
30 | HWGE | ≤ 0.25
31 | KQPH | ≤ 0.25
32 | HVRW | 1.21
33 | YNEV | ≤ 0.25
34 | IIIN | ≤ 0.25
35 | TNMA | 5.41
36 | PCAF | ≤ 0.25
37 | LGPH | ≤ 0.25
38 | MIMF | 0.51
39 | MACN | 1.06
40 | EGPT | ≤ 0.25
41 | LLWD | ≤ 0.25
42 | NQIC | ≤ 0.25
43 | QIAF | ≤ 0.25
44 | EDKG | ≤ 0.25
45 | PLTS | ≤ 0.25
46 | MLEG | ≤ 0.25
47 | GWKT | ≤ 0.25
48 | HELF | ≤ 0.25
49 | YQFS | ≤ 0.25
50 | FWME | ≤ 0.25

Row | Variant | enrichment ratio
51 | GLWE | ≤ 0.25
52 | WRNW | ≤ 0.25
53 | YFNK | ≤ 0.25
54 | MAWA | ≤ 0.25
55 | FCTW | ≤ 0.25
56 | NFCL | ≤ 0.25
57 | QWHV | ≤ 0.25
58 | VMTL | 1.45
59 | GIFD | ≤ 0.25
60 | PQQD | ≤ 0.25
61 | IWFD | ≤ 0.25
62 | MPWI | ≤ 0.25
63 | DKTF | ≤ 0.25
64 | WYFI | ≤ 0.25
65 | PNPC | ≤ 0.25
66 | MFKQ | ≤ 0.25
67 | GFAM | ≤ 0.25
68 | LPDL | ≤ 0.25
69 | VTKM | ≤ 0.25
70 | YCGK | ≤ 0.25
71 | WAYN | ≤ 0.25
72 | SCSE | 7.26
73 | STIG | 6.57
74 | LRSA | ≤ 0.25
75 | NGFD | ≤ 0.25

Row | Variant | enrichment ratio
76 | IRTM | ≤ 0.25
77 | VWTN | ≤ 0.25
78 | FSCQ | 7.11
79 | YPPS | 0.298
80 | VFYA | ≤ 0.25
81 | VHDV | ≤ 0.25
82 | FFKV | ≤ 0.25
83 | TKHP | ≤ 0.25
84 | YPSL | ≤ 0.25
85 | SLGR | 0.305
86 | WCLK | ≤ 0.25
87 | GRSC | ≤ 0.25
88 | PAFM | ≤ 0.25
89 | SMWL | ≤ 0.25
90 | PESS | ≤ 0.25
91 | LPQT | ≤ 0.25
92 | YWKV | ≤ 0.25
93 | MNWW | ≤ 0.25
94 | HWRV | ≤ 0.25
95 | GVRM | ≤ 0.25
96 | WRCD | ≤ 0.25
97 | GFCH | ≤ 0.25
98 | LKPC | ≤ 0.25
99 | HLIG | ≤ 0.25
100 | EFHR | ≤ 0.25

Row | Variant | enrichment ratio
101 | SGDQ | ≤ 0.25
102 | SHSG | 1.68
103 | PSQC | ≤ 0.25
104 | DEKS | 1.38
105 | NHIW | ≤ 0.25
106 | LLSN | ≤ 0.25
107 | GNYS | ≤ 0.25
108 | DRYH | ≤ 0.25
109 | IKTK | ≤ 0.25
110 | DERG | ≤ 0.25
111 | VGPM | ≤ 0.25
112 | PCEL | ≤ 0.25
113 | SAVR | ≤ 0.25
114 | KNLR | ≤ 0.25
115 | GHRH | ≤ 0.25
116 | SCYF | ≤ 0.25
117 | SRVL | 5.71
118 | PHCF | ≤ 0.25
119 | FEYM | 2.71
120 | LDAT | ≤ 0.25
121 | THEY | ≤ 0.25
122 | WADD | ≤ 0.25
123 | WLTS | ≤ 0.25
124 | HQLY | 0.308
125 | PSLS | ≤ 0.25

Row | Variant | enrichment ratio
126 | YPCR | ≤ 0.25
127 | YDIR | ≤ 0.25
128 | VQLR | ≤ 0.25
129 | FCNP | ≤ 0.25
130 | DRPF | ≤ 0.25
131 | YPNN | ≤ 0.25
132 | TGFW | ≤ 0.25
133 | YLYT | ≤ 0.25
134 | ITWF | ≤ 0.25
135 | WEFW | ≤ 0.25
136 | LFSL | ≤ 0.25
137 | ADSY | ≤ 0.25
138 | VSSN | ≤ 0.25
139 | PATS | ≤ 0.25
140 | GFAE | ≤ 0.25
141 | QPVC | ≤ 0.25
142 | NHQQ | ≤ 0.25
143 | RIVE | ≤ 0.25
144 | MKEA | ≤ 0.25
145 | NVDD | ≤ 0.25
146 | KDTQ | ≤ 0.25
147 | VVNL | ≤ 0.25
148 | RGMV | ≤ 0.25
149 | VAGG | ≤ 0.25
150 | PYKG | ≤ 0.25

Row | Variant | enrichment ratio
151 | LCYT | ≤ 0.25
152 | HYMD | ≤ 0.25
153 | FEIP | ≤ 0.25
154 | MIDH | ≤ 0.25
155 | LDYW | ≤ 0.25
156 | IGHA | ≤ 0.25
157 | LSGT | ≤ 0.25
158 | YIHQ | ≤ 0.25
159 | MFCC | ≤ 0.25
160 | VVFV | ≤ 0.25
161 | HYGS | ≤ 0.25
162 | GYLT | ≤ 0.25
163 | YWCI | ≤ 0.25
164 | DMGP | ≤ 0.25
165 | PEFR | ≤ 0.25
166 | ACFI | ≤ 0.25
167 | WHSP | ≤ 0.25
168 | THNL | 12.7
169 | RMPP | ≤ 0.25
170 | EKSK | ≤ 0.25
171 | NDSK | ≤ 0.25
172 | HVDF | ≤ 0.25
173 | RISG | ≤ 0.25
174 | DYYD | ≤ 0.25
175 | FECY | ≤ 0.25

Row | Variant | enrichment ratio
176 | RDPW | ≤ 0.25
177 | KAPE | ≤ 0.25
178 | GFHA | ≤ 0.25
179 | APGW | ≤ 0.25
180 | RQGW | ≤ 0.25
181 | SIQP | ≤ 0.25
182 | RKDV | ≤ 0.25
183 | SSDD | ≤ 0.25
184 | DETP | ≤ 0.25
185 | VACS | ≤ 0.25
186 | ADQL | ≤ 0.25
187 | VQVW | ≤ 0.25
188 | TMAM | 26.9
189 | RFYT | ≤ 0.25
190 | MYCL | ≤ 0.25
191 | MMEF | ≤ 0.25
192 | NSYV | ≤ 0.25
193 | AMWG | ≤ 0.25
194 | REWY | ≤ 0.25
195 | PGCN | ≤ 0.25
